{"source": "the supplement of paper PMC8728848", "binders": {"B1": {"name": "Gal 9 (Homo sapiens), O00182 (protein)", "chain": "MAFSGSQAPYLSPAVPFSGTIQGGLQDGLQITVNGTVLSSSGTRFAVNFQTGFSGNDIAFHFNPRFEDGGYVVCNTRQNGSWGPEERKTHMPFQKGMPFDLCFLVQSSDFKVMVNGILFVQYFHRVPFHRVDTISVNGSVQLSYISFQNPRTVPVQPAFSTVPFSQPVCFPPRPRGRRQKPPGVWPANPAPITQTVIHTVQSAPGQMFSTPAIPPMMYPHPAYPMPFITTILGGLYPSKSILLSGTVLPSAQRFHINLCSGNHIAFHLNPRFDENAVVRNTQIDNSWGSEERSLPRKMPFVRGQSFSVWILCEAHCLKVAVDGQHLFEYYHRLRNLPTINRLEVGGDIQLTHVQT"}}, "assay_in_all_cases": "glycan array binding signal (z-score within array); higher = stronger binding", "settings_in_all_cases": "glycan notation: IUPAC condensed, linker removed", "key": {"[1]": {"molecular_target": "Neu5Ac(a2-3)Gal(b1-4)GlcNAc(b1-3)Gal", "procedure,_shortened": "(§1)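 Negative Z-scores can be read as non-binding. The Z-score is calculated within each array and then averaged across arrays of one protein sequence at different concentrations or buffers and across linkers. Arrays, 3228 in all, were curated from the Consortium for Functional Glycomics database and kept only where the protein sequence was available.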"}, "[2]": {"molecular_target": "Neu5Ac(a2-3)Gal(b1-4)GlcNAc(b1-3)Gal(b1-3)GlcNAc", "procedure,_shortened": "as §1"}, "[3]": {"molecular_target": "Neu5Ac(a2-3)Gal(b1-4)GlcNAc(b1-3)Gal(b1-4)GlcNAc", "procedure,_shortened": "as §1"}, "[4]": {"molecular_target": "Neu5Ac(a2-3)Gal(b1-4)GlcNAc(b1-3)Gal(b1-4)GlcNAc(b1-2)Man(a1-3)[Neu5Ac(a2-3)Gal(b1-4)GlcNAc(b1-3)Gal(b1-4)GlcNAc(b1-2)Man(a1-6)]Man(b1-4)GlcNAc(b1-4)GlcNAc", "procedure,_shortened": "as §1"}, "[5]": {"molecular_target": "Neu5Ac(a2-3)Gal(b1-4)GlcNAc(b1-3)Gal(b1-4)GlcNAc(b1-3)Gal(b1-4)GlcNAc", "procedure,_shortened": "as §1"}, "[6]": {"molecular_target": "Neu5Ac(a2-3)Gal(b1-4)GlcNAc(b1-3)Gal(b1-4)GlcNAc(b1-3)Gal(b1-4)GlcNAc(b1-2)Man(a1-3)[Neu5Ac(a2-3)Gal(b1-4)GlcNAc(b1-3)Gal(b1-4)GlcNAc(b1-3)Gal(b1-4)GlcNAc(b1-2)Man(a1-6)]GalNAc", "procedure,_shortened": "as §1"}, "[7]": {"molecular_target": "Neu5Ac(a2-3)Gal(b1-4)GlcNAc(b1-3)Gal(b1-4)GlcNAc(b1-3)GalNAc", "procedure,_shortened": "as §1"}, "[8]": {"molecular_target": "Neu5Ac(a2-3)Gal(b1-4)GlcNAc(b1-3)Gal(b1-4)GlcNAc(b1-3)[Neu5Ac(a2-3)Gal(b1-4)GlcNAc(b1-3)Gal(b1-4)GlcNAc(b1-6)]GalNAc", "procedure,_shortened": "as §1"}, "[9]": {"molecular_target": "Neu5Ac(a2-3)Gal(b1-4)GlcNAc(b1-3)Gal(b1-4)GlcNAc(b1-6)[Gal(b1-3)]GalNAc", "procedure,_shortened": "as §1"}, "[10]": {"molecular_target": "Neu5Ac(a2-3)Gal(b1-4)GlcNAc(b1-3)Gal(b1-4)[Fuc(a1-3)]GlcNAc", "procedure,_shortened": "as §1"}, "[11]": {"molecular_target": "Neu5Ac(a2-3)Gal(b1-4)GlcNAc(b1-3)GalNAc", "procedure,_shortened": "as §1"}, "[12]": {"molecular_target": "Neu5Ac(a2-3)Gal(b1-4)GlcNAc(b1-3)[Neu5Ac(a2-3)Gal(b1-4)GlcNAc(b1-6)]GalNAc", "procedure,_shortened": "as §1"}, "[13]": {"molecular_target": "Neu5Ac(a2-3)Gal(b1-4)GlcNAc(b1-6)GalNAc", "procedure,_shortened": "as §1"}, "[14]": {"molecular_target": "Neu5Ac(a2-3)Gal(b1-4)GlcNAc(b1-6)[Gal(b1-3)]GalNAc", "procedure,_shortened": "as §1"}, "[15]": {"molecular_target": "Neu5Ac(a2-3)Gal(b1-4)GlcNAc(b1-6)[Neu5Ac(a2-3)Gal(b1-3)]GalNAc", "procedure,_shortened": "as §1"}, "[16]": {"molecular_target": "Neu5Ac(a2-3)Gal(b1-4)GlcNAc6S", "procedure,_shortened": "as §1"}, "[17]": {"molecular_target": "Neu5Ac(a2-3)Gal(b1-4)[Fuc(a1-3)]GlcNAc", "procedure,_shortened": "as §1"}, "[18]": {"molecular_target": "Neu5Ac(a2-3)Gal(b1-4)[Fuc(a1-3)]GlcNAc(b1-2)Man", "procedure,_shortened": "as §1"}, "[19]": {"molecular_target": "Neu5Ac(a2-3)Gal(b1-4)[Fuc(a1-3)]GlcNAc(b1-3)Gal", "procedure,_shortened": "as §1"}, "[20]": {"molecular_target": "Neu5Ac(a2-3)Gal(b1-4)[Fuc(a1-3)]GlcNAc(b1-3)Gal(b1-4)GlcNAc", "procedure,_shortened": "as §1"}, "[21]": {"molecular_target": "Neu5Ac(a2-3)Gal(b1-4)[Fuc(a1-3)]GlcNAc(b1-3)Gal(b1-4)[Fuc(a1-3)]GlcNAc(b1-3)Gal(b1-4)[Fuc(a1-3)]GlcNAc", "procedure,_shortened": "as §1"}, "[22]": {"molecular_target": "Neu5Ac(a2-3)Gal(b1-4)[Fuc(a1-3)]GlcNAc(b1-3)GalNAc", "procedure,_shortened": "as §1"}, "[23]": {"molecular_target": "Neu5Ac(a2-3)Gal(b1-4)[Fuc(a1-3)]GlcNAc(b1-6)[Gal(b1-3)]GalNAc", "procedure,_shortened": "as §1"}, "[24]": {"molecular_target": "Neu5Ac(a2-3)Gal(b1-4)[Fuc(a1-3)]GlcNAc(b1-6)[Neu5Ac(a2-3)Gal(b1-3)]GalNAc", "procedure,_shortened": "as §1"}, "[25]": {"molecular_target": "Neu5Ac(a2-3)Gal(b1-4)[Fuc(a1-3)]GlcNAc6S", "procedure,_shortened": "as §1"}, "[26]": {"molecular_target": "Neu5Ac(a2-3)Gal6S(b1-4)GlcNAc", "procedure,_shortened": "as §1"}, "[27]": {"molecular_target": "Neu5Ac(a2-3)Gal6S(b1-4)[Fuc(a1-3)]GlcNAc", "procedure,_shortened": "as §1"}, "Neu5Ac(a2-3)GalNAc": {"molecular_target": "Neu5Ac(a2-3)GalNAc", "procedure,_shortened": "as §1"}, "[28]": {"molecular_target": "Neu5Ac(a2-3)GalNAc(b1-4)GlcNAc", "procedure,_shortened": "as §1"}, "[29]": {"molecular_target": "Neu5Ac(a2-3)[GalNAc(b1-4)]Gal(b1-4)Glc", "procedure,_shortened": "as §1"}, "[30]": {"molecular_target": "Neu5Ac(a2-3)[GalNAc(b1-4)]Gal(b1-4)GlcNAc", "procedure,_shortened": "as §1"}, "[31]": {"molecular_target": "Neu5Ac(a2-3)[GalNAc(b1-4)]Gal(b1-4)GlcNAc(b1-3)GalNAc", "procedure,_shortened": "as §1"}, "[32]": {"molecular_target": "Neu5Ac(a2-3)[Neu5Ac(a2-6)]GalNAc", "procedure,_shortened": "as §1"}, "Neu5Ac(a2-6)Gal": {"molecular_target": "Neu5Ac(a2-6)Gal", "procedure,_shortened": "as §1"}, "[33]": {"molecular_target": "Neu5Ac(a2-6)Gal(b1-3)GlcNAc(b1-3)[Gal(b1-4)GlcNAc(b1-6)]Gal(b1-4)Glc", "procedure,_shortened": "as §1"}}, "note": "Some of the results follow.", "data": [{"binder": "B1", "values": [{"measurement": "glycan array binding signal (z-score)", "setting": "[1]", "result": -0.239}, {"measurement": "glycan array binding signal (z-score)", "setting": "[2]", "result": -0.234}, {"measurement": "glycan array binding signal (z-score)", "setting": "[3]", "result": -0.14}, {"measurement": "glycan array binding signal (z-score)", "setting": "[4]", "result": -0.236}, {"measurement": "glycan array binding signal (z-score)", "setting": "[5]", "result": 0.554}, {"measurement": "glycan array binding signal (z-score)", "setting": "[6]", "result": -0.247}, {"measurement": "glycan array binding signal (z-score)", "setting": "[7]", "result": -0.295}, {"measurement": "glycan array binding signal (z-score)", "setting": "[8]", "result": -0.268}, {"measurement": "glycan array binding signal (z-score)", "setting": "[9]", "result": -0.289}, {"measurement": "glycan array binding signal (z-score)", "setting": "[10]", "result": -0.302}, {"measurement": "glycan array binding signal (z-score)", "setting": "[11]", "result": -0.265}, {"measurement": "glycan array binding signal (z-score)", "setting": "[12]", "result": -0.32}, {"measurement": "glycan array binding signal (z-score)", "setting": "[13]", "result": -0.311}, {"measurement": "glycan array binding signal (z-score)", "setting": "[14]", "result": -0.331}, {"measurement": "glycan array binding signal (z-score)", "setting": "[15]", "result": -0.336}, {"measurement": "glycan array binding signal (z-score)", "setting": "[16]", "result": -0.093}, {"measurement": "glycan array binding signal (z-score)", "setting": "[17]", "result": -0.324}, {"measurement": "glycan array binding signal (z-score)", "setting": "[18]", "result": -0.281}, {"measurement": "glycan array binding signal (z-score)", "setting": "[19]", "result": -0.301}, {"measurement": "glycan array binding signal (z-score)", "setting": "[20]", "result": -0.3}, {"measurement": "glycan array binding signal (z-score)", "setting": "[21]", "result": -0.324}, {"measurement": "glycan array binding signal (z-score)", "setting": "[22]", "result": -0.239}, {"measurement": "glycan array binding signal (z-score)", "setting": "[23]", "result": -0.282}, {"measurement": "glycan array binding signal (z-score)", "setting": "[24]", "result": -0.299}, {"measurement": "glycan array binding signal (z-score)", "setting": "[25]", "result": -0.31}, {"measurement": "glycan array binding signal (z-score)", "setting": "[26]", "result": -0.321}, {"measurement": "glycan array binding signal (z-score)", "setting": "[27]", "result": -0.316}, {"measurement": "glycan array binding signal (z-score)", "setting": "Neu5Ac(a2-3)GalNAc", "result": -0.322}, {"measurement": "glycan array binding signal (z-score)", "setting": "[28]", "result": -0.323}, {"measurement": "glycan array binding signal (z-score)", "setting": "[29]", "result": -0.302}, {"measurement": "glycan array binding signal (z-score)", "setting": "[30]", "result": -0.307}, {"measurement": "glycan array binding signal (z-score)", "setting": "[31]", "result": -0.293}, {"measurement": "glycan array binding signal (z-score)", "setting": "[32]", "result": -0.307}, {"measurement": "glycan array binding signal (z-score)", "setting": "Neu5Ac(a2-6)Gal", "result": -0.312}, {"measurement": "glycan array binding signal (z-score)", "setting": "[33]", "result": -0.198}]}]}
